# Results taken from patent US20140377265A1, “ANTICOAGULANT ANTIDOTES” (BOEHRINGER INGELHEIM INTERNATIONAL GMBH, priority 2011, published 2014).
# B1: Clone 22: mouse monoclonal anti-dabigatran antibody, VH SEQ ID NO: 70, VK SEQ ID NO: 71 (antibody, listed as Mus musculus, V domains shown)
# VH: QVQLEQSGPGLVAPSQRLSITCTVSGFSLTSYIVDWVRQSPGKGLEWLGVIWAGGSTNYNSALRSRLSITKSNSKSQVFLQMNSLQTDDTAIYYCASAAYYSYYNYDGFAYWGQGTLVTVSA
# VL: DVVMTQTPLTLSVTIGQPASISCKSSQSLLYTNGKTYLYWLLQRPGQSPKRLIYLVSKLDSGVPDRFSGSGSGTDFTLKISRVEAEDVGIYYCLQSTHFPHTFGGGTKLEIK
# modifications: /mol_type=“protein” /note=“DBG22VH” /organism=“Mus musculus”; /mol_type=“protein” /note=“DBG22VK” /organism=“Mus musculus”
# Assays:
# Format in all cases: biochemical
# [1] = tested on: dabigatran anticoagulant activity in human plasma; experiment: Neutralization of dabigatran in thrombin clotting time assay, human plasma; conditions: 30 nM dabigatran, 1.5-2 U/mL thrombin
# Description: Briefly human plasma is obtained by taking whole blood into 3.13% sodium citrate. This is then centrifuged to obtain platelet free plasma and transferred to a separate tube and frozen until required on the day of the assay. Plasma is thawed at 37° C. on the day of the assay.
# The thrombin clotting time is performed as follows. First thrombin is diluted to manufacturer's specification (3 IU/mL thrombin) in the buffer provided (Dade Behring Test kit) and prewarmed to 37° C. It is used within 2 hrs of being prepared. All assays were performed on a commercially available CL4 clotting machine (Behnk Electronics, Norderstadt, Germany). Fifty μL of plasma is pipetted into provided cuvettes with a magnetic stirrer and allowed to stir for 2 min in the well preheated to 37° C. in the CL4 machine. At this point 100 μL of the thrombin solution is added and the time required for the plasma sample to clot is recorded automatically by the CL4.
# [2] = tested on: dabigatran anticoagulant activity in human whole blood; experiment: Neutralization of dabigatran in thrombin clotting time assay, human whole blood; conditions: 30 nM dabigatran, 1.5-2 U/mL thrombin
# Description: The assay was initiated by the addition of 1.5-2 U/mL of thrombin and clotting time was measured.
# The assay was performed as described above.
# [3] = tested on: dabigatran acylglucuronide anticoagulant activity in human plasma; experiment: Neutralization of dabigatran acylglucuronide in thrombin clotting time assay, human plasma; conditions: 7 nM dabigatran acylglucuronide, 0.4 U/mL thrombin
# Description: The assay was initiated by the addition of 0.4 U/mL of thrombin and clotting time was measured.
# The major metabolic pathway of dabigatran in humans is through the glucuronidation of the carboxylate moiety.
molecule,measurement,setting,value
B1,reversal of dabigatran mediated prolongation of clotting time,[1],dose dependently inhibited the dabigatran mediated prolongation of clotting time
same,reversal of dabigatran mediated prolongation of clotting time,[1]; listed as clone 22,completely reversed
same,reversal of anticoagulant effect of dabigatran,[2],reverses the anticoagulant effect of dabigatran
same,reversal of dabigatran acylglucuronide induced prolongation in clotting time,[3],dose dependently inhibited the dabigatran acylglucuronide induced prolongation in clotting time
